The values that follow come from PMC12820563, “FoxP3 forms a head-to-head dimer in vivo and stabilizes its multimerization on adjacent microsatellites”.

The other results are listed elsewhere or left out.

The test addresses T1, MBP-FoxP1dN (Mus musculus, UniProt P58462 326-579).
T1 sequence: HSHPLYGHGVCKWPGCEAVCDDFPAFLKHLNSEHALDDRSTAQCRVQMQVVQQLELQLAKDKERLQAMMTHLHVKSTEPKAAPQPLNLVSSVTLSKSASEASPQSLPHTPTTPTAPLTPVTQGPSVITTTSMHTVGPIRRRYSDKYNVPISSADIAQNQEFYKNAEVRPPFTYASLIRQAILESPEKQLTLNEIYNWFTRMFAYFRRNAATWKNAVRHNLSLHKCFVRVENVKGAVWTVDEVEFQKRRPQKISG
The test is described as follows: PD-seq (MBP pull-down with sequencing); 20 mM Tris-HCl pH 7.5, 100 mM NaCl, 1.5 mM MgCl2, 0.4 uM protein, 0.1 uM dsDNA library, 30 min, room temperature, amylose pull-down; high values mean tight binding. Conditions: protein: recombinant; tags: His6-MBP; chain copies: 2; dsDNA, one strand shown. In short, it runs like this: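 A fragment of mouse FoxP3 or FoxP1 without its N-terminus, carrying a His6-MBP tag and produced in E. coli, was combined at 0.4 µM with a 0.1 µM degenerate double-stranded DNA library filled in with Klenow. The mixture sat for 30 min at room temperature in Tris pH 7.5 buffer containing NaCl and MgCl2. Protein–DNA complexes were captured on amylose resin, washed three times, and the DNA was freed with proteinase K, barcoded by PCR and sequenced on Illumina. Binding is expressed as reads-per-million enrichment of pull-down over input, with replicates pooled.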
For “GATGATTGTTCTCCCAGCTGATGAATTAGTATGTTCGAGTAAACAAATTTTCCTAATCTTTCTGTTCAAGCGCCATCTAC”, the binding signal is 1.19 RPM ratio (pull-down/input). To “GATGATTGTTCTCCCAGCTGATGAATTCGCCCAATCGAGTAAACAAATTTTCCTAATCTTTCTGTTCAAGCGCCATCTAC” belongs 0.951 RPM ratio (pull-down/input).

With “GATGATTGTTCTCCCAGCTGATGAATTTCATTCTTCGAGTAAACAAATTTTCCTAATCTTTCTGTTCAAGCGCCATCTAC”, the binding signal was 0.823 RPM ratio (pull-down/input).

“GATGATTGTTCTCCCAGCTGATGAATTCGGAAATTCGAGTAAACAAATTTTCCTAATCTTTCTGTTCAAGCGCCATCTAC”: the binding signal is 0.869 RPM ratio (pull-down/input).

In the case of “GATGATTGTTCTCCCAGCTGATGAATTTCTTTCCTCGAGTAAACAAATTTTCCTAATCTTTCTGTTCAAGCGCCATCTAC”, the binding signal is 0.824 RPM ratio (pull-down/input). For the sequence “GATGATTGTTCTCCCAGCTGATGAATTAGCGCTGTCGAGTAAACAAATTTTCCTAATCTTTCTGTTCAAGCGCCATCTAC”, the binding signal is 0.866 RPM ratio (pull-down/input). To “GATGATTGTTCTCCCAGCTGATGAATTCTCACCCTCGAGTAAACAAATTTTCCTAATCTTTCTGTTCAAGCGCCATCTAC” belongs 0.781 RPM ratio (pull-down/input). For “GATGATTGTTCTCCCAGCTGATGAATTGTAAGTATCGAGTAAACAAATTTTCCTAATCTTTCTGTTCAAGCGCCATCTAC”, the binding signal is 1.24 RPM ratio (pull-down/input). In the case of “GATGATTGTTCTCCCAGCTGATGAATTTTAAGCCTCGAGTAAACAAATTTTCCTAATCTTTCTGTTCAAGCGCCATCTAC”, the binding signal was 0.766 RPM ratio (pull-down/input). To “GATGATTGTTCTCCCAGCTGATGAATTAAACCTATCGAGTAAACAAATTTTCCTAATCTTTCTGTTCAAGCGCCATCTAC” belongs 0.943 RPM ratio (pull-down/input).

As for “GATGATTGTTCTCCCAGCTGATGAATTCTGTAACTCGAGTAAACAAATTTTCCTAATCTTTCTGTTCAAGCGCCATCTAC”, the binding signal is 0.979 RPM ratio (pull-down/input).

For “GATGATTGTTCTCCCAGCTGATGAATTTCCACCATCGAGTAAACAAATTTTCCTAATCTTTCTGTTCAAGCGCCATCTAC”, the binding signal was 0.912 RPM ratio (pull-down/input). As to “GATGATTGTTCTCCCAGCTGATGAATTGGCTACATCGAGTAAACAAATTTTCCTAATCTTTCTGTTCAAGCGCCATCTAC”, the binding signal is 0.93 RPM ratio (pull-down/input). For “GATGATTGTTCTCCCAGCTGATGAATTCCTGGATTCGAGTAAACAAATTTTCCTAATCTTTCTGTTCAAGCGCCATCTAC” the value was 0.881 RPM ratio (pull-down/input); for “GATGATTGTTCTCCCAGCTGATGAATTGATTTCCTCGAGTAAACAAATTTTCCTAATCTTTCTGTTCAAGCGCCATCTAC”, 1.17 RPM ratio (pull-down/input); for “GATGATTGTTCTCCCAGCTGATGAATTTGCTATATCGAGTAAACAAATTTTCCTAATCTTTCTGTTCAAGCGCCATCTAC”, 1.07 RPM ratio (pull-down/input).

As for “GATGATTGTTCTCCCAGCTGATGAATTTATAACCTCGAGTAAACAAATTTTCCTAATCTTTCTGTTCAAGCGCCATCTAC”, the binding signal is 1.05 RPM ratio (pull-down/input). As for “GATGATTGTTCTCCCAGCTGATGAATTGAAAACCTCGAGTAAACAAATTTTCCTAATCTTTCTGTTCAAGCGCCATCTAC”, the binding signal was 0.844 RPM ratio (pull-down/input).

In the case of “GATGATTGTTCTCCCAGCTGATGAATTGAGTCTTTCGAGTAAACAAATTTTCCTAATCTTTCTGTTCAAGCGCCATCTAC”, the binding signal was 0.938 RPM ratio (pull-down/input). To “GATGATTGTTCTCCCAGCTGATGAATTCAACTAGTCGAGTAAACAAATTTTCCTAATCTTTCTGTTCAAGCGCCATCTAC” belongs 0.877 RPM ratio (pull-down/input); to “GATGATTGTTCTCCCAGCTGATGAATTAGTCCGATCGAGTAAACAAATTTTCCTAATCTTTCTGTTCAAGCGCCATCTAC”, 0.851 RPM ratio (pull-down/input). For “GATGATTGTTCTCCCAGCTGATGAATTCGTTTTTTCGAGTAAACAAATTTTCCTAATCTTTCTGTTCAAGCGCCATCTAC” the value was 0.928 RPM ratio (pull-down/input). For “GATGATTGTTCTCCCAGCTGATGAATTACCACCTTCGAGTAAACAAATTTTCCTAATCTTTCTGTTCAAGCGCCATCTAC” the value was 0.981 RPM ratio (pull-down/input). Regarding “GATGATTGTTCTCCCAGCTGATGAATTTAACTACTCGAGTAAACAAATTTTCCTAATCTTTCTGTTCAAGCGCCATCTAC”, the binding signal was 0.942 RPM ratio (pull-down/input). For “GATGATTGTTCTCCCAGCTGATGAATTCTATTTGTCGAGTAAACAAATTTTCCTAATCTTTCTGTTCAAGCGCCATCTAC” the value was 2.3 RPM ratio (pull-down/input); for “GATGATTGTTCTCCCAGCTGATGAATTCGCAAACTCGAGTAAACAAATTTTCCTAATCTTTCTGTTCAAGCGCCATCTAC”, 0.956 RPM ratio (pull-down/input). For “GATGATTGTTCTCCCAGCTGATGAATTGTCAACTTCGAGTAAACAAATTTTCCTAATCTTTCTGTTCAAGCGCCATCTAC” the value was 1.31 RPM ratio (pull-down/input); for “GATGATTGTTCTCCCAGCTGATGAATTAGATCCATCGAGTAAACAAATTTTCCTAATCTTTCTGTTCAAGCGCCATCTAC”, 0.917 RPM ratio (pull-down/input). On to “GATGATTGTTCTCCCAGCTGATGAATTCTTAGTATCGAGTAAACAAATTTTCCTAATCTTTCTGTTCAAGCGCCATCTAC”, for which the binding signal was 0.963 RPM ratio (pull-down/input). For “GATGATTGTTCTCCCAGCTGATGAATTTGAGCGGTCGAGTAAACAAATTTTCCTAATCTTTCTGTTCAAGCGCCATCTAC” the value was 0.767 RPM ratio (pull-down/input). To “GATGATTGTTCTCCCAGCTGATGAATTCAAACATTCGAGTAAACAAATTTTCCTAATCTTTCTGTTCAAGCGCCATCTAC” belongs 1.36 RPM ratio (pull-down/input).
